Among the data in PubChem BioAssay AID360 (National Center for Advancing Translational Sciences (NCATS), 2006) are Potency values, retold here.

Among all 48,000 compounds or so, about 550 (1.1%) were called active. Inconclusive results (about 4%) are left out. No stated cut-off is given here; in the data, active means potency below about 15 µM; inconclusive means mostly about 16 µM to 33 µM; inactive means weaker than that. This is one part of the list. Where only a bound is given, the exact number is not on record here.
Potency means the concentration at half of the fitted maximal effect.

This test has as its target Lysosomal acid glucosylceramidase (Homo sapiens) (UniProt P04062). Nature of the test: Glucocerebrosidase.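 Further: the screen sought inhibitors.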 Particulars: purified enzyme, resorufin glucoside fluorescence (screen aimed at inhibitors), 20 min. Put shortly: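 Wild-type enzyme at 0.2 nM final in 50mM citric acid/KH2PO4, 10mM sodium taurocholate, 0.01% tween-20, pH 5.9, with resorufin beta-D-glucopyranoside at 30 uM final. Compounds titrated, 20 min at RT, red fluorescence read; AC50 from titration.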
Chain of UniProt P04062 (P04062 whole entry, looked up): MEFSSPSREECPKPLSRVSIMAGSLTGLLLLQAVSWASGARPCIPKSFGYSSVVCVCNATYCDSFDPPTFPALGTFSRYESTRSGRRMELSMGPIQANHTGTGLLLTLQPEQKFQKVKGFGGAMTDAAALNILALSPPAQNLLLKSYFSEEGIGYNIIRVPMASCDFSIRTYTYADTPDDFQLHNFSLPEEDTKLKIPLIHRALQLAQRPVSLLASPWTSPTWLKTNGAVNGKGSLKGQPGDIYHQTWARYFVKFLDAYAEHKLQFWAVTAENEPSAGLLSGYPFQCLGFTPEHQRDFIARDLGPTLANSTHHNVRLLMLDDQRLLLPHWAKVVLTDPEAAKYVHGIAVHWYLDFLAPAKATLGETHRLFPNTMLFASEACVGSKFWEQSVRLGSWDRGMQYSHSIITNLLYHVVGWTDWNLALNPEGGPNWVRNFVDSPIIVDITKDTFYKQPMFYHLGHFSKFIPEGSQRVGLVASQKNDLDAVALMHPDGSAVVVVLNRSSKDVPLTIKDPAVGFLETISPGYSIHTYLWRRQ
On to `COC(=O)C(NC(=O)C(C)Oc1ccccc1)C(C)C` (stereo not drawn), for which the Potency is inactive: > 76.9 µM.
As for `O=C(C1CC(=O)N(c2ccccc2)C1)N1CCN(C2=NS(=O)(=O)c3ccccc32)CC1` (stereo not drawn), the figure is inactive: > 76.9 µM; as for `Cc1ccc2cc(CN(CCO)Cc3nnnn3Cc3ccc(F)cc3)c(=O)[nH]c2c1`, inactive: > 76.9 µM.
In the case of `O=c1[nH]c2cc3c(cc2cc1C(c1nnnn1CC1CCCO1)N1CCCCCC1)OCO3` (stereo not drawn), the Potency is inactive: > 76.9 µM.
With `O=C(OCC(=O)N1CCN(C(=O)c2ccco2)CC1)c1cn(-c2ccccc2)nc1-c1ccccc1`, the Potency is inactive: > 76.9 µM.
With `CCN(CC)c1ccc(C2C(C(=O)OCCOC)=C(C)NC3=C2C(=O)CC(C)(C)C3)cc1` (stereo not drawn), the Potency is inactive: > 76.9 µM.
Under `CCOC(=O)C1CCN(S(=O)(=O)C(F)(F)c2nc3ccccc3s2)CC1` stands inactive: > 76.9 µM; under `CC1(C)Cc2c(sc3ncnc(N)c23)CO1`, inactive: > 76.9 µM; under `CCN(CCCNC(=O)COc1cc(=O)n(C)c2ccccc12)c1cccc(C)c1`, inactive: > 76.9 µM.
On to `COC(=O)c1c(C)[nH]c(C(=O)CN2CCOCC2)c1C`, for which the Potency was inactive: > 76.9 µM.
With `O=C(Nc1ccccc1)OC1C2CCC1C(N1CCCCC1)CC2` (stereo not drawn), the Potency is inactive: > 76.9 µM.
`O=C(O)CCCC(=O)Nc1nc(-c2ccccc2)cs1`: the Potency was inactive: > 76.9 µM.
For the compound `COc1ccc(-c2noc(CSc3nnc(Cc4ccccc4)n3-c3cccc(C)c3)n2)cc1OC`, the Potency is inactive: > 76.9 µM.
`COc1cc2nc(N3CCN(C(=O)C4CCCO4)CC3)nc(N)c2cc1OC` (stereo not drawn): the Potency was inactive: > 76.9 µM.
With `Cc1ccccc1OCc1nc(-c2ccc(NC(=O)c3ccco3)cc2)no1`, the Potency is inactive: > 76.9 µM.
Regarding `CC(C)OP(=O)(c1ccc(N(C)C)cc1)C(O)c1c(Cl)cccc1Cl` (stereo not drawn), the Potency is inactive: > 76.9 µM.
With `Cc1cc(C(=O)Nn2cnnc2)cs1`, the Potency is inactive: > 76.9 µM.
Regarding `Cc1cnc(-c2nnc(N(C)C(=O)C3CCOC3)s2)cn1` (stereo not drawn), the Potency is inactive: > 76.9 µM.
As for `Cc1cc(C(=O)CN2C(=O)CCC2=O)c(C)n1Cc1ccccc1`, the Potency is inactive: > 76.9 µM.
`Cc1csc(NC(=O)CCNS(=O)(=O)c2ccc3c(c2)c(=O)n(C)c(=O)n3C)n1`: the Potency was inactive: > 76.9 µM.
For `CC(=O)N1CCc2cc(S(=O)(=O)NCCC(=O)Nc3cc(C)cc(C)c3)ccc21`, the Potency was inactive: > 76.9 µM.
Consider `O=C(c1ccc(S(=O)(=O)NCC2CCCO2)cc1)N1CCc2ccccc21` (stereo not drawn), for which the Potency is inactive: > 76.9 µM.
Under `CCCN1CCN(C(c2cc3cc(OCC)ccc3[nH]c2=O)c2nnnn2C2CCCCC2)CC1` (stereo not drawn) stands inactive: > 76.9 µM.
